The full ranking holds about 33,000 sequences; the median of “E-score (dimensionless, -0.5 to 0.5)” is about -0.058, and the highest 2% start at about 0.35. This is one part of the list.
test system: MvaT; assay: PBM 8-mer E-score (mean of HK and ME arrays) (E-score (dimensionless, -0.5 to 0.5)); higher = stronger relative binding preference; most listed sequences are background and not binding sites
Summary of the method: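 Reported values are rank-based E-scores, taken as the mean of two universal arrays and parsed with a custom script. Each 8-mer score falls between -0.5 and 0.5. The arrays, ME and HK, were double-stranded 60-mers with a constant 25-mer primer region and a variable 35-mer region covering all 8-mers. They were probed, by an earlier protocol, with full-length P. aeruginosa MvaT carrying an N-terminal glutathione S-transferase fusion.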

Sequence	PBM 8-mer E-score
AGGTGCCG	-0.21
AATTTTAT	0.324
CACCATTC	-0.0583
ACCAATGA	-0.075
AGGAGTAC	-0.123
CCCAAGGG	-0.407
GTGACGAA	-0.12
ACCGGGAC	-0.226
AATAAGAG	0.222
AGTCCGAA	-0.135
ATAGTTGG	0.124
CCTTGCAA	-0.00659
GCTGTGAA	0.176
TGCGTAAA	0.128
TATGCTCA	-0.0354
ATGTCCAA	-0.029
AGTAGTCG	0.0506
ATTCAAAC	0.174
ACGGGAGA	-0.23
ACAGGTTA	0.00674
CCCAACCA	-0.247
GACTGACC	-0.197
ACCCACAA	0.0435
TCCATTCA	-0.0922
CAACTCGG	-0.0192

Sequence	PBM 8-mer E-score
AGAGCAGC	-0.263
CCGTCGGA	-0.171
GACCAATA	0.115
AGTGCCAT	-0.126
GCACTAGC	-0.15
CCGCCCTC	-0.198
GGCTGCTA	-0.186
CTAGCTGC	-0.273
CAAGTTTC	0.159
ACCATGCT	-0.0594
AAAGGTGT	0.065
CAGGACTC	-0.228
CCCCAGAG	-0.159
ACCCACTC	-0.000253
AATTGACT	0.0728
CCTTATTA	0.292
AAGGCATT	-0.0145
GACGACGC	-0.249
CGTGTCAC	-0.138
ATCGGCCA	-0.173
ACCAGCCA	-0.103
CACGTACC	-0.255
ATACGTCA	0.0584
ATGTTCTA	0.0957
AAACTTGC	0.232

Sequence	PBM 8-mer E-score
ACCTCCCA	-0.226
AGCGGTCG	-0.314
CCCTAGCC	-0.272
CTTTAGGC	-0.0888
ACGTACAA	0.158
CGTGGCAC	-0.252
CAGAGTCC	-0.202
CCCAGCTC	-0.188
GAATCCTC	-0.262
ATGACGCA	-0.0923
CTCAACGA	-0.126
ATGGGAGG	-0.307
GCCCGGCA	-0.203
AAATGGCT	-0.139
ATTCAATG	0.0138
AAGGTTAC	-0.0966
GCTTTCCC	-0.305
CTTGTACC	-0.189
CGGGTGTA	-0.173
TACAGCGA	0.0102
TGCATGCA	0.00935
AGCTCGTA	-0.104
ATCGTCTC	0.0114
ACTACTAC	0.138
ATGACCCC	-0.19

Sequence	PBM 8-mer E-score
AGAAATGA	0.0234
TACCAGAA	0.096
CGTTCGAC	-0.16
ACCGACTC	-0.12
TAAAATGA	0.263
CCAGTGGC	-0.339
CTATTACC	0.165
ACGGGTAC	-0.0995
GGGCTGAC	-0.203
AAGTAGAG	0.0241
AGCTTCTA	-0.0129
AATAAGTG	0.254
ACACATCT	0.0482
CCCACTAA	0.0832
AAGGTCGG	-0.224
AAAAAATC	-0.0155
CAGTGATG	0.0336
ACCTTCTC	-0.216
ACCTGCCG	-0.216
GGGGGGAC	-0.279
CCGCTGAG	-0.214
ACTTGGAC	0.0426
AGACATAG	0.00833
TCAATGAA	0.00438
ATTGCGCC	-0.229

Sequence	PBM 8-mer E-score
AGCGGCTA	-0.173
CAGTCAAG	-0.06
GGATCCCA	-0.105
GCACCTAC	-0.156
TAGACCAA	0.0302
AGAACACA	0.0376
AGGTTAGC	-0.318
CTATGTGA	-0.00371
CGAACATA	0.0561
CCAGCCAA	-0.118
AGCTCACT	-0.199
CTTAACGA	-0.023
CGTGTTGA	-0.144
AGCTATCG	-0.157
AGTTCGTG	-0.0553
CGTTGCTA	-0.019
ACTACATG	0.152
ATTTCATA	0.25
CGCGGCAA	0.00899
GTACTTGA	0.1
CCTCGTAG	-0.0333
ACAAAGAG	-0.0186
CAGTCGGC	-0.196
CGGATACG	-0.136
ATCTACGG	-0.115

Sequence	PBM 8-mer E-score
GTCAGGCA	-0.0612
CCCCAGTA	-0.117
GTCTTAAC	-0.0766
CAATTTAC	0.248
CCGGGAGA	-0.0673
CCAAGAGC	-0.245
ATAGGCTC	-0.0589
CCGAAACG	-0.204
CGTAGTGC	-0.0989
CCGTGGTC	-0.0848
GGAAGCCA	-0.171
CCGCACCA	-0.157
CCGAGCAA	-0.0238
CAGATAGA	-0.0253
GATATGCC	-0.00116
CGAGAACA	0.0484
GCTGTTTA	0.126
GATCCACA	0.0197
AAATTCCG	0.108
TGCCGGAA	-0.154
CCTCTCCA	-0.226
CAGAATGC	-0.132
AGCCGGTC	-0.159
GACGACTA	-0.0594
ACACTATC	0.122

Sequence	PBM 8-mer E-score
TCACACCA	-0.0842
CATAATTC	0.223
ACGAGTCA	-0.233
AAATGTAC	0.14
CGTCTTCA	-0.038
ACGGGTGA	-0.00679
GCCCACGC	-0.276
TAAACTAA	0.34
CGAAGAAA	0.176
AGTGATCC	-0.21
CGTTCCAG	-0.203
TACAGAGA	0.0639
AATGCCCA	0.0229
GCAACTGC	-0.142
CCAGAGAA	0.0167
ACTTGGGG	-0.109
CAAAAAAC	0.216
GACAAACC	0.176
ACAATAAG	0.276
ATCTCGGC	-0.0787
GCCCATTA	-0.0164
ACAGTTCC	-0.0657
AATGTACG	0.125
AAGACAAT	0.209
CCTTCTAC	-0.13

Sequence	PBM 8-mer E-score
AGTATAGA	0.0904
CGCGGCCG	-0.113
GTGCTTCA	-0.0014
ACGCCCCA	-0.193
CTTCTTGC	-0.121
CGGCGGAC	-0.209
GGGAAGCA	-0.128
CGCCAGCC	-0.184
ACACTGGC	-0.145
ATCAATCG	-0.0693
AGGCACCC	-0.204
CCGGGCAC	-0.137
CAGCAACA	0.137
CGATGGTC	-0.364
CATAATGA	0.233
GGGCCCGA	-0.201
ATTCGGAG	-0.0203
CCTTGTAG	-0.168
ATCGACTG	-0.11
TATTTACA	0.374
CTCCCCCC	-0.333
AGCTCTTC	-0.208
GAAGTCAC	-0.139
CTCTCAAG	-0.193
ATTGTGCA	0.169

Sequence	PBM 8-mer E-score
CGGGAGCC	-0.233
CCTGTCCG	-0.203
ACCCAAAG	-0.101
GTGTAGCA	-0.00783
CCTGCTTC	-0.157
CATATGCA	0.164
GGAAGGCC	-0.328
GTGCAAAC	0.0651
TACGAAGA	0.1
AGCTTACT	-0.0495
CGTCAACA	-0.0821
AGCTTAGA	-0.0268
AGGTGATA	0.0933
CAAGAGTG	-0.0498
CACCCGGG	-0.296
CCAGAAAG	-0.0666
AAGGCAGC	-0.077
ACATATTG	0.281
GCTTACCC	-0.187
ATATTTCG	0.345
AAGTATGC	0.248
AAACGGGC	0.0523
TCACTCAA	0.0781
ATGCCGTC	-0.093
GCTTAATA	0.352

Sequence	PBM 8-mer E-score
CATTCGAA	0.0613
ATGGTCTG	-0.169
GATGGGAC	-0.226
GATGTAAC	0.126
ATTCGTTG	0.0414
AATTTGTC	0.183
ATGCTCTA	-0.124
TATAAGAA	0.369
CGGGTGAG	-0.162
TCCGACAA	-0.00754
CCTGCCAC	-0.0789
CTTTTCGC	0.114
TCAAAACA	0.149
ACTAGATG	-0.0453
CGGTGTCA	-0.0698
GAATGAAA	0.168
CTTATAAG	0.394
AACGGGTG	-0.155
ACCCGCTG	-0.0997
CCCCGGCG	-0.31
CTCCGACC	-0.298
AACACTCC	0.0305
AAAGCTCC	-0.295
ATCCGCAA	0.0457
AACGTAGA	-0.0778

Sequence	PBM 8-mer E-score
CTCTTGCC	-0.227
CAACTCCG	-0.00993
AGCTAAGC	-0.138
TACGCTCA	-0.149
CAGGGAAG	-0.284
CGGAGAAC	-0.221
TGGCGAAA	0.0983
TAGCACAA	0.0731
CTTCAATA	0.244
GTGATAAA	0.211
GCGTCCAA	-0.139
AGTCACAG	-0.131
CCCCCGCA	-0.166
CAGAAAGG	-0.16
TTACGCAA	0.167
AACAGTGA	-0.025
GTACAGTA	0.0682
CAATACCC	0.102
TCCGAAGA	-0.0726
CGCAATAG	0.111
CGATGGCA	-0.11
ACCGACGG	-0.163
AACGCATA	0.142
CTGTGTTC	-0.0932
CGATGATA	0.0601

Sequence	PBM 8-mer E-score
CAGGGTCC	-0.336
CAGATTAC	0.117
ACGATGTA	-0.0246
ACAGTGGA	0.0474
CGAGCGTA	-0.121
CATAGCTC	-0.149
AACTCGAG	0.0357
GAAGGGAA	-0.147
CTTAATAC	0.286
ACCTCTCC	-0.143
AAAGATCG	-0.0318
CGTCTCAG	-0.227
TAAGACTA	0.104
GAGAATCC	-0.189
GAATTTGA	0.118
ATTAACAC	0.328
CTTTGGTA	0.0478
GCCCACCA	-0.231
CCCAAGCG	-0.301
AACTTGTA	0.283
CTTAAAGA	0.073
CATAACAG	0.111
AGGAACGG	-0.278
AAGAACCC	-0.093
GAGTGTCA	-0.078

Sequence	PBM 8-mer E-score
AGAGTGCA	-0.0217
TAGACGAA	-0.11
ATTTACCC	0.21
GGAGTGTA	0.042
ACCATAAA	0.173
CCCAATAC	0.0452
ACAGGGAA	-0.0133
AGCCCAGC	-0.255
AATTGTAA	0.305
GGAGCTAC	-0.24
AGAGTCTG	-0.103
ACGCTCGC	-0.127
AGCTAATC	-0.0533
TAGCCAGA	-0.246
GTCCACGA	-0.105
TGTTACAA	0.257
GTACTCGA	-0.105
GAGATCTA	-0.0145
CATATGAA	0.164
ACTACAGT	0.0853
CAAGCCTG	-0.209
ATGTTGCC	0.083
GCGTTCAC	-0.167
GAGTCTGA	-0.111
CATAGACA	0.175

Sequence	PBM 8-mer E-score
ATTTGTAC	0.314
TCATGTAA	0.119
AAATGCGT	0.187
AGCGGCCC	-0.355
AAGATTAA	0.317
GAAACCTA	-0.0639
GACCCTTA	0.0184
CATTCCTC	0.0102
ATGCTTAA	0.221
CATCACGC	-0.13
AAGCTACA	-0.0278
TCCCGCCA	-0.186
GGCTTATA	0.122
ACCGAGTA	-0.0513
TATTGCGA	0.206
CTGGTATA	0.162
ATATATTG	0.446
GAGCTGAA	-0.321
ATTGGGCG	-0.0684
